Assay results published in patent US20050059087A1, “Antibodies directed to the deletion mutants of epidermal growth factor receptor and uses thereof” (priority 2003, published 2005).

B1: 13.1.2: human anti-EGFRvIII hybridoma mAb, subclone of 13.1; SEQ ID NO: 138 and 140 (antibody, listed as Homo sapiens)
VH: QVQLVESGGGVVQPGRSLRLSCAASGFTFSSYGMHWVRQAPGKGLEWVAVIWYDGSNKYYVDSVKGRFTISRDNSKNTLYLQMNSLRAEDTAVYYCARDGWQQLAPFDYWGQGTLVTVSSASTKGPSVFPLAPSSKSTSGGTAALGCLVKDYFPEPVTVSWNSGALTSGV
light: [no letters for about 100 residues]QLPRTFGQGTKVEIKRTVAAPSVFIFPPSDEQLKSGTASVVCLLNNFYPREAKVQWKVDNALQSGNSQ
B2: L99T-5.3: 13.1.2 variant with point mutation Leu99Thr (antibody)
VH: B1 VH
VL: [no letters for about 100 residues]QTPRTFGQGTKVEIKRTVAAPSVFIFPPSDEQLKSGTASVVCLLNNFYPREAKVQWKVDNALQSGNSQ
B3: L217Q-10.1: 13.1.2 variant with point mutation Leu217Gln (antibody)
VH: B1 VH with L104Q
VL: [no letters for about 100 residues]QLPRTFGQGTKVEIKRTVAAPSVFIFPPSDEQLKSGTASVVCLLNNFYPREAKVQWKVDNALQSGNSQ
B4: L217N-2.1: 13.1.2 variant with point mutation Leu217Asn (antibody)
VH: B1 VH with L104N
VL: [no letters for about 100 residues]QLPRTFGQGTKVEIKRTVAAPSVFIFPPSDEQLKSGTASVVCLLNNFYPREAKVQWKVDNALQSGNSQ
B5: N35G-3.1: 13.1.2 variant with point mutation Asn35Gly (antibody)
VH: B1 VH
VL: DIVMTQTPLSSPVTLGQPASISCRSSQSLVHSDGGTYLSWLHQRPGQPPRLLIYKISNRFSGVPDRFSGSGAGTAFTLKISRVEAEDVGVYYCMQATQLPRTFGQGTKVEIKRTVAAPSVFIFPPSDEQLKSGTASVVCLLNNFYPREAKVQWKVDNALQSGNSQ
B6: L99H-9.2: 13.1.2 variant with point mutation Leu99His (antibody)
VH: B1 VH
VL: [no letters for about 100 residues]QHPRTFGQGTKVEIKRTVAAPSVFIFPPSDEQLKSGTASVVCLLNNFYPREAKVQWKVDNALQSGNSQ
B7: Y172R-1.2: 13.1.2 variant with point mutation Tyr172Arg (antibody)
VH: B1 VH with Y59R
VL: [no letters for about 100 residues]QLPRTFGQGTKVEIKRTVAAPSVFIFPPSDEQLKSGTASVVCLLNNFYPREAKVQWKVDNALQSGNSQ

How the values were obtained:
[1] = target: T1, EGFRvIII peptide-OVA (muEGFr) (Homo sapiens, UniProt P00533, DELINS30-297G); assay: Hybridoma supernatant ELISA on EGFRvIII peptide-OVA coated plates; type: binding; details: clone supernatant
T1 construct: purchased R&D Systems (custom synthesis); host or cells: synthetic peptide
Description: (§1) Cells were plated in flat bottomed 96-well tissue culture plates at 4×1 cells per well. Cultures were maintained in HAT (hypoxanthine, aminopterin and thymidine) supplemented media for 2 weeks before transfer to HT (hypoxanthine and thymidine) supplemented media. Hybridomas were selected for by survival in HAT medium and supernatants were screened for antigen reactivity by ELISA. The ELISA format entailed incubating supernatants on antigen coated plates (EGFRvIII peptide-OVA coated plates and wild type EGFr peptide-OVA coated plates as a counter screen) and detecting EGFRvIII-specific binding using horseradish peroxidase (HRP) labeled mouse anti-human IgG (see Table 2.1).

[2] = test system: wild type EGFr peptide-OVA; assay: Hybridoma ELISA counter screen on wild type EGFr peptide-OVA coated plates; type: binding, human; details: clone supernatant
Description: as §1

[3] = target: T2, H1477 (H80-EGFRvIII) cells (Homo sapiens, UniProt P00533, DELINS30-297G); assay: FACS staining of H1477 (H80-EGFRvIII) cells; type: cell-based; details: 10 μg/ml
T2 construct: host or cells: H1477 (H80 human glioblastoma line transfected with EGFRvIII)
Description: (§2) The specificity of the purified antibodies was ascertained by performing FACS analysis on a panel of cell lines. H80, a human glioblastoma line, and H1477 (H80-EGFRvIII) that expresses high levels of EGFRvIII, A431, a human epidemoid carcinoma line, and A549, a human lung carcinoma cell line were used as the cell lines. All cell lines were from Dr. Bigner except A431 and A549, which were from ATCC (Rockville, Md., U.S.A.). Cells were incubated on ice with 10 μg/ml of the respective antibody for 30 min., washed in FACS buffer and subsequently incubated with PE-conjugated goat anti-human IgG from Jackson ImmunoResearch (West Grove, Pa., U.S.A.). In FIGS. 9A-9L and 10A-10D, the darkened histogram indicates cells stained with an irrelevant IgG, the outlined, or white histogram, represents the staining of the relevant antibodies.

[4] = target: T3, A431 cells (wild type EGFR) (Homo sapiens, UniProt P00533); assay: FACS staining of A431 cells; type: cell-based; details: 4° C., Example 6
T3 construct: host or cells: A431
Description: as §2

[5] = target: T4, Pep-3 (EGFRvIII epitope) (Homo sapiens, UniProt P00533, DELINS30-297G); assay: Biacore (surface plasmon resonance) binding kinetics to Pep-3
T4 construct: purchased Anatech, Inc. (San Jose, Calif.); host or cells: custom synthesis
Description: All antigen and mAb samples for Biacore and KinExA analysis were prepared in vacuum-degassed HBS-P buffer (0.01 M HEPES, 0.15 M NaCl, 0.005% surfactant P-20, Biacore Inc., Uppsala, Sweden) containing 100 μg/mL BSA. […] Research grade CM5 biosensor chips were purchased from Biacore, Inc.
Standard EDC/NHS and carbohydrate coupling was used to covalently immobilize mAbs to a CM5 sensor chip. To minimize mass transport and crowding mAbs were immobilized at levels that gave a maximum antigen binding response (Rmax) of no more than 50-100 RU. A reference flow cell on each chip was activated and blocked with no mAb immobilization to serve as a control.
All Biacore kinetic experiments were conducted at 23° C. […] Antigen samples were randomly injected over the biosensor surface in triplicate at 100 μL/min. Several buffer blanks were injected intermittently over the course of an experiment for double referencing. Each pep-3 concentration and blank were injected for 90 seconds. Dissociation was followed for 13 to 180 minutes.
All Biacore sensorgrams were processed using Scrubber software (Version 1.1f, BioLogic Software, Australia). Sensorgrams were first zeroed on the y-axis and then x-aligned at the beginning of the injection. Bulk refractive index changes were removed by subtracting the reference flow cell responses. The average response of all blank injections was subtracted from all analyte and blank sensorgrams to remove systematic artifacts between the experimental and reference flow cells. CLAMP biosensor data analysis software (Version 3.40, BioLogic Software, Australia) was used to determine ka and kd from the processed data sets. Data from all flow cells were globally fit to a 1:1 bimolecular binding model that included a mass transport term. […] The KD was calculated from the quotient kd/ka.
Two CM5 sensor chips were used in total to immobilize both mAbs. […] Biacore 2000 optical biosensors were used for all studies.
Next, pep-3 was flowed across the mAb immobilized biosensor surfaces. The starting concentration of pep-3 was 1.25 μM, which was followed with eight two-fold serial dilutions in randomized triplicate injections. Blank injections were run every sixth sample throughout the injection series for double referencing purposes.
Finally, the biosensor data was processed with Scrubber and the data was fit to curves utilizing Clamp with a 1:1 interaction model with a term included for mass transport. […]

[6] = target: T5, EGFRvIIIpflag (iodoacetic acid reacted) (Homo sapiens, UniProt P00533, DELINS30-297G); assay: KinExA equilibrium measurement, EGFRvIIIpflag; type: binding
T5 construct: A 1092 bp fragment encoding the extracellular domain of EGFRvIII was generated; FLAG; made in house; host or cells: 293T cells
Description: The equilibrium titration data were fit in a dual curve analysis to a 1:1 binding model using KinExA software (Version 2.4, Sapidyne Instruments).
A sample volume of 250 μL was analyzed for the antibody-controlled experiment. Two or three replicates of each sample were measured for all equilibrium experiments. The equilibrium titration data were fit in a dual curve analysis to a 1:1 binding model using KinExA software (Version 2.4, Sapidyne Instruments).

[7] = Biacore, parentheses 95% confidence interval
[8] = Pep-3, parentheses 95% confidence interval

| Molecule | OD #2 muEGFr [1] | OD #1 cloning plate ([1]; cloning plate) | OD #2 EGFr [2] | Binding to the EGFRvIII protein on the transfected cell lines [3] | Recognition of a subset of wild type EGFRs on A431 cells [4] | ka ([5]; Biacore, curve fitting) | kd ([5]; Biacore, curve fitting) | Ka [5, 7] | dissociation rate constant (kd, koff) [5, 7] | ka [5, 8] | kd [5, 8] | Kd [6] [nM] |
| --- | --- | --- | --- | --- | --- | --- | --- | --- | --- | --- | --- | --- |
| B1 | 1.272 | 2.248 | 0.041 | bind | did not recognize | 2.835*10^5 | 0.01922 | 2.10 (0.58) × 10^5 M^−1s^−1 | 0.016 (0.003) s^−1 | 2.10 (0.58) × 10^5 M^−1s^−1 | 0.016 (0.003) s^−1 | 0.754 |
| B2 |  |  |  |  |  | 2.238*10^5 | 0.01217 |  |  | 2.16 (0.12) × 10^5 M^−1s^−1 | 0.013 (0.001) s^−1 |  |
| B3 |  |  |  |  |  | 2.04*10^5 | 0.01885 |  |  | 204000 M⁻¹ s⁻¹ | 0.019 s⁻¹ |  |
| B4 |  |  |  |  |  | 2.198*10^5 | 0.04069 |  |  | 220000 M⁻¹ s⁻¹ | 0.040 s⁻¹ |  |
| B5 |  |  |  |  |  | 1.497*10^5 | 0.03057 |  |  | 150000 M⁻¹ s⁻¹ | 0.030 s⁻¹ |  |
| B6 |  |  |  |  |  |  | 0.03293 |  |  | 83400 M⁻¹ s⁻¹ | 0.033 s⁻¹ |  |
| B7 |  |  |  |  |  |  | 0.07622 |  |  | 82200 M⁻¹ s⁻¹ | 0.076 s⁻¹ |  |

Residue numbers refer to the chain shown, from its start. In names and notes the source's numbering stands.
